Test results from PubChem BioAssay AID504845 (National Center for Advancing Translational Sciences (NCATS), 2011).
“And” between values parts separate entries of the source, which are not always exact repeats. Equal entries are not always repeated. Among all 390,000 compounds or so, about 150 (0.038%) were called active. Inconclusive results, whose numbers are uncertain, are shown with a selection of clear calls. Calls follow the shape of the dose curve; as a rule, active = well fitted inhibition curve with a large enough effect; inconclusive = small, poorly fitted or top-dose-only effect; inactive = no such curve, though single readings can be large or run the other way. A potency beside an inconclusive call is a rough fit, not a confirmed value.

biological target: Regulator of G-protein signaling 4 (Homo sapiens) (UniProt P49798); experiment: Inhibitors of Regulator of G Protein Signaling (RGS) 4: qHTS; conditions: Transcreener GDP fluorescence polarization, RGS4-accelerated GTP hydrolysis; series mostly up to 114 µM; also: nearly all actives have a fitted effect of over 75% in size
Sequence of UniProt P49798 (P49798 whole entry, looked up): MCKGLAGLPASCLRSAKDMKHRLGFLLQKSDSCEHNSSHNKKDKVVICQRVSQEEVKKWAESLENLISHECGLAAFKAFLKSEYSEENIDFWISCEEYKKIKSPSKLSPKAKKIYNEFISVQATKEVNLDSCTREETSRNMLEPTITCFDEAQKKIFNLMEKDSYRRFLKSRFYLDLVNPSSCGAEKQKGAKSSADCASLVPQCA
How it was run: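 MLSMR compounds (23 nl, pin-transferred) preincubated 10 min at room temperature with a 500nM (2x) first reagent, then RGS4 at 900nM (2x) plus Transcreener GDP mix added; fluorescence polarization (620/688 nm) read before and after 90 min at 30 °C.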
% is scaled to controls: 0 for no effect and ±100 for the full control effect; potency is read from the fitted curve at half-maximal effect; tags tell the direction and shape of the fitted curve.

Compound | Potency | activity change, negative = inhibition
O=C(NNc1ccccc1C(F)(F)F)c1sccc1Cl | inactive | 
Cc1ccc(NC(=S)c2ccc3ccccc3n2)c(C)c1 | inconclusive: 79.4 µM [inhibitor, partial curve, poor fit] | 
Cn1cccc1-c1cc(C(=O)N/N=C/c2ccccc2Cl)[nH]n1 | inactive | 
COc1ccc2cc(-c3ccccc3)c(=O)oc2c1 |  | inactive: 6.53% [at 11.4 µM]
COCc1nnc(NC(=O)CCCOc2ccccc2OC)s1 | inconclusive: 79.4 µM [inhibitor, partial curve, poor fit] | 
COc1cccc(CC(=O)Nc2c(C(=O)N3CCN(c4ccccc4F)CC3)oc3ccccc23)c1 | inactive | 
CC(C)CCNC(=O)C(c1ccc(O)cc1)N(C(=O)C1COc2ccccc2O1)c1cccc(O)c1 (stereo unspecified) | inconclusive: 50.1 µM [inhibitor, partial curve, poor fit] | 
CCn1c(SCC(=O)OC)nnc1-c1ccccc1 | inconclusive: 70.8 µM [inhibitor, partial curve, poor fit] | 
O=C(CSc1nnc(NC(=O)c2ccccc2C(=O)O)s1)Nc1ccccc1Cl | inconclusive: 17.8 µM [inhibitor, full curve, poor fit] | 
CCC(=O)N1c2ccccc2CC1C(=O)NCCN1CCN(c2cc(Cl)ccc2C)CC1 (stereo unspecified) | inactive | 
CCCC(=O)NC(c1ccccc1Cl)c1c(O)ccc2ccccc12 (stereo unspecified) | inactive | 
COc1cc(C2C=C(C34CC5CC(CC(C5)C3)C4)NC(=S)N2)cc(OC)c1OC (stereo unspecified) | inactive | 
COc1ccccc1Cn1cnc2cccnc21 |  | inactive: -2.28% [at 11.4 µM]
COc1ccc2cc[nH]c2c1 | inconclusive: 89.1 µM [inhibitor, single point] | 
NC(=O)c1c(NC(=O)C2CCCO2)sc2c1CCCCC2 (stereo unspecified) | inconclusive: 100 µM [inhibitor, partial curve, poor fit] | 
CCOc1ccc(OCC)c(NC(=O)CN(C)S(=O)(=O)c2cccc3nsnc23)c1 | inconclusive: 79.4 µM [inhibitor, partial curve, poor fit] | 
CC(=O)NC(=S)Nc1ccc(S(=O)(=O)N2CCOCC2)cc1 | inconclusive: 44.7 µM [inhibitor, partial curve, poor fit] | 
CC(Sc1ccccc1F)C(=O)Nc1ccc2c(c1)OCCO2 (stereo unspecified) | inactive | 
CS(=O)(=O)C1=NSC2=NC(=O)/C(=C\c3cccn3-c3ccccc3Cl)C(=N)N21 | inconclusive: 89.1 µM [inhibitor, single point] | 
CCOC(=O)c1c(C)n(C)c2ccc(OC)c(NC(=O)CN3CCSCC3)c12 | inactive | 
CSc1ccccc1C(=O)OCC(=O)NC1CCS(=O)(=O)C1 (stereo unspecified) | inconclusive: 17.8 µM [inhibitor, full curve, poor fit] | 
CC1=C(/C=C/C(C)=C/C=C/C(C)=C/C(=O)Nc2ccc(O)cc2)C(C)(C)CCC1 | inconclusive: 10.6 µM [inhibitor, partial curve, poor fit] and inconclusive: 16.8 µM [inhibitor, partial curve, poor fit] | 

Compound | Potency | activity change, negative = inhibition
CC1=NNC(=O)C(CC(=O)Nc2ccc(Cl)c(Cl)c2)C1 (stereo unspecified) | inconclusive: 89.1 µM [inhibitor, partial curve, poor fit] | 
Cc1ccc(-n2nnnc2SCC(=O)Nc2cccc(NC(=O)c3ccco3)c2)cc1C | inconclusive: 28.2 µM [inhibitor, full curve, poor fit] | 
CC(C)(C)C1CCc2c(sc(NC(=O)c3ccccc3F)c2C(=O)NCc2ccco2)C1 (stereo unspecified) | inactive | 
CCCC(NCC(O)COc1ccc(-c2ccccc2)cc1)c1ccccc1 (stereo unspecified) | inactive | 
N#Cc1nc(-c2ccco2)oc1NCCc1ccccc1 | inactive | 
O=C(NCCC1=CCCCC1)NC12CC3CC(CC(C3)C1)C2 | inactive | 
NC(=O)C1CCN(C2=C(Cl)C(=O)c3ccccc3C2=O)CC1 | inconclusive: 50.1 µM [inhibitor, partial curve, poor fit] | 
Cc1ccc(-n2[nH]c(C)c(C=Nc3cc(C)ccn3)c2=O)cc1 | inconclusive: 79.4 µM [inhibitor, single point] | 
CC[n+]1c(/C=C2\C=C(C)CC(C)C2)sc2ccccc21 (stereo unspecified) | inconclusive: 28.2 µM [inhibitor, full curve, poor fit] | 
Cn1c(CNC(=O)c2ccc(Cl)c(Cl)c2)nnc1SCC(=O)Nc1sc2c(c1C#N)CCCC2 | inconclusive: 35.5 µM [inhibitor, partial curve, poor fit] | 
O=C(Nc1ccc(Cl)c(Cl)c1)OCCNC(=O)c1ccncc1 | inconclusive: 79.4 µM [inhibitor, partial curve, poor fit] | 
COC(=O)c1ccc([C@H]2Nc3ccc(S(=O)(=O)Nc4ccc(F)cc4)cc3[C@H]3C=CC[C@H]32)cc1 | inactive | 
COc1ccc(OC)c(S(=O)(=O)NCCC(C)C)c1 | inconclusive: 89.1 µM [inhibitor, partial curve, poor fit] | 
Nc1ncnc2c1ncn2[C@@H]1O[C@H](COP(=O)(O)O)[C@@H](O)[C@H]1O | inconclusive: 1.89 µM [inhibitor, partial curve, poor fit] | 
CNCc1cn2cc(Cl)ccc2n1 | inconclusive: 79.4 µM [inhibitor, partial curve, poor fit] | 
O=C(O)COc1ccc(/C=C/C(=O)c2ccc(C3CCCCC3)cc2)cc1 | inconclusive: 50.1 µM [inhibitor, partial curve, poor fit] | 
COCCN(C(=O)CSc1nnc(C)n1-c1ccccc1)c1c(N)n(Cc2ccccc2)c(=O)[nH]c1=O | inconclusive: 89.1 µM [inhibitor, single point] | 
CCOC(=O)N1CCN(CCC(=O)c2ccc(Br)cc2)CC1 | inconclusive: 28.2 µM [inhibitor, full curve, poor fit] | 
O=c1ccc2c(-c3ccccc3S(=O)(=O)O)c3ccc(O)c(O)c3oc-2c1O | inconclusive: 31.6 µM [inhibitor, full curve, poor fit] | 
CC(C)c1ccc(/C=C/C2=NNC(=O)CC2)cc1 | inconclusive: 50.1 µM [inhibitor, partial curve, poor fit] | 
COc1ccc(NC(=O)Cc2ccc(C)c(C)c2)cc1S(=O)(=O)N1CCCCC1 | inactive | 
S=C1NC2=C(CCCC2=C2SCCCS2)C(c2ccccc2)N1 (stereo unspecified) | inconclusive: 100 µM [inhibitor, partial curve, poor fit] | 

Compound | Potency | activity change, negative = inhibition
COc1ccccc1N1CCN(C(=O)CSc2ncnc3scc(-c4ccccc4)c23)CC1 | inconclusive: 50.1 µM [inhibitor, partial curve, poor fit] | 
CCCS(=O)(=O)c1c(S(=O)(=O)CCC)c2c(C)cccn2c1C(N)=O | inactive | 
CCCC1=NN2C(=N)/C(=C\c3ccc(SCc4ccco4)o3)C(=O)N=C2S1 | inconclusive: 79.4 µM [inhibitor, partial curve, poor fit] | 
Cc1oc2c(CN3CCCC3)c(O)ccc2c(=O)c1Oc1ccccc1Br | inactive | 
COc1cc(C(=O)OCC(C)=O)ccc1OCc1c(C)noc1C | inactive | 
CCSc1nnc2c(n1)OC(c1ccc(OC)c(OC)c1)N(C(C)=O)c1ccccc1-2 (stereo unspecified) | inactive | 
CCOC(=O)C1C(=O)NC(SCC(=O)Nc2nccs2)=C(C#N)C1c1ccccc1OCC (stereo unspecified) | inconclusive: 35.5 µM [inhibitor, full curve, poor fit] | 
Cc1cccc(NC(=S)NNC(=O)c2cccc([N+](=O)[O-])c2)c1 | inconclusive: 100 µM [inhibitor, single point] | 
COc1ccccc1CN1CCNC(=O)C1CC(=O)NCc1c(C)n[nH]c1C (stereo unspecified) | inconclusive: 79.4 µM [inhibitor, partial curve, poor fit] | 
COc1ccc(CN2C(=O)/C(=C/c3ccncc3)SC2=S)cc1 | inconclusive: 70.8 µM [inhibitor, partial curve, poor fit] | 
CCOc1ccc(-n2ccnc(SCC(=O)Nc3ccc(OC)cc3OC)c2=O)cc1 | inconclusive: 56.2 µM [inhibitor, partial curve, poor fit] | 
COc1ccc(OC)c(CCNC(=O)CS(=O)(=O)Cc2nc(-c3ccc(C)cc3)oc2C)c1 | inactive | 
CN(C)CCC=C1c2ccccc2C=Cc2ccccc21 | inactive | 
N#C/C(=C\c1ccc(C#N)cc1)C(=O)c1ccccc1 | inconclusive: 28.2 µM [inhibitor, full curve, poor fit] | 
CC(=O)/C(C#N)=C1\NC(=O)C(Cc2ccccc2)S1 (stereo unspecified) | inactive | 
Fc1cnc(Cl)nc1NC1CCCCC1 | inconclusive: 56.2 µM [inhibitor, partial curve, poor fit] | 
CN(C)c1[nH]c(=O)c(C#N)c2c1CCN2Cc1ccccc1 | inconclusive: 100 µM [inhibitor, single point] | 
S=c1[nH]nc(Nc2cccc3ccccc23)s1 | inconclusive: 50.1 µM [inhibitor, partial curve, poor fit] | 
CCOc1ccc(N(CC(=O)Nc2ccc(OC)cc2)C2=NC3CS(=O)(=O)CC3S2)cc1 (stereo unspecified) | inconclusive: 20 µM [inhibitor, full curve, poor fit] | 
Cc1ccccc1-c1ccc(C(=O)Nc2cccc(F)c2)o1 | inconclusive: 79.4 µM [inhibitor, partial curve, poor fit] | 
CCN1CCC2(CC1)N=C(c1ccc(F)cc1)C(=S)N2C(=O)c1ccc(C(C)(C)C)cc1 | inconclusive: 50.1 µM [inhibitor, partial curve, poor fit] | 
Cc1ccccc1COc1ccc(/C=C(\C#N)C(N)=O)cc1 | inconclusive: 79.4 µM [inhibitor, partial curve, poor fit] | 
